The results in this text go back to PubChem BioAssay (NCI).

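Results reflect a 48-hour exposure of cells in 96-well plates to compound at five concentrations. GI50: concentration for 50% inhibition of growth. Definition used: TGI = concentration required for complete inhibition of growth.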 Bounds are passed on as bounds.

This test concerns NCI-H322M lung. The test is described as follows: growth of human tumour cells (NCI), 48 h.
`CS(=O)(=O)c1ccc(COP(N)(=O)N(CCCl)CCCl)cc1` (stereo not drawn) registered a TGI of over 100 µM.

The molecule `[N-]=[N+]=Nc1nc2ccccc2c(N=[N+]=[N-])c1Cl` had a TGI of over 100 µM.

On to `Cc1cc(N2CCCCC2)nc2ccc(Cc3ccc4nc(N5CCCCC5)cc(C)c4c3)cc12`, for which the TGI is over 100 µM.

`COc1cccc(NC(=O)CC(=O)n2nc(-c3ccccc3)c(N=Nc3ccc(Cl)cc3)c2-c2ccccc2)c1`: the TGI turned out to be 98 µM.

In turn, `CCCCNS(=O)(=O)c1ccc(-c2ccc3c(c2)-c2ccc(S(=O)(=O)NCCCC)cc2S3(=O)=O)cc1` returned a TGI of over 100 µM.

Regarding `CN1CCC(c2c(O)cc(O)c3c(=O)cc(-c4ccccc4Cl)oc23)C(O)C1` (stereo not drawn), the TGI was over 100 µM.

`O=c1c2ccccc2oc2ccccc12` (tested in a mixture with another compound) returned a TGI of over 100 µM.

Take `Cc1cc(C)c2c(c1)C/C(=C\c1cccc(C)c1C(=O)O)C2=O`: the TGI was over 100 µM.

Take `O=C1CC(c2ccsc2)n2cccc21` (stereo not drawn): the TGI was over 100 µM.

The molecule `CC1=C(CO)C(=O)O[C@@H]([C@@H](C)[C@H]2CC[C@H]3[C@@H]4C[C@H]5O[C@]56[C@@H](O)C=CC(=O)[C@]6(C)[C@H]4CC[C@]23C)C1` gave a TGI of 6.32 µM.

With `CCN1CCN(c2cc(C(=O)Nc3cccc(Nc4ccc5c(OC)cccc5n4)c3)cc(C(F)(F)F)c2)CC1`, the GI50 is 1.33 µM and the TGI was 7.28 µM.

On to `COC(=O)[C@@H](NS(=O)(=O)CC12CCC(CC1)C2(C)C)C(C)(C)C`, for which the TGI was over 100 µM.

On to `Oc1ccc2ccccc2c1OCc1nnc(CCCCCCCCc2nnc(COc3c(O)ccc4ccccc34)n2Nc2ccccc2)n1Nc1ccccc1`, for which the TGI is over 100 µM.

In turn, `O=C1CCCCC/C1=C\c1cccc(F)c1` yielded a TGI of over 100 µM.

`O=C1CS/C(=N/S(=O)(=O)c2ccc(N3N=C4c5ccccc5CC4C3c3cccs3)cc2)N1C(=O)c1ccccc1` (stereo not drawn): the GI50 is 16.6 µM and the TGI was determined as 49.9 µM.

`CC(=O)/C=C/c1ccccc1` yielded a TGI of over 100 µM.

In the case of `O=C(O)c1c2c(cc3c(=O)c4ccccc4[nH]c13)CCCC2`, the TGI was over 100 µM.

With `Cc1nn(C)c2ncnc(N/N=C/c3cccc(O)c3O)c12`, the GI50 is 0.426 µM and the TGI is over 53 µM.

With `CCN(CC)CCCNCc1cc(-c2ccccc2)nc2cc(Cl)ccc12`, the GI50 was 10.1 µM and the TGI came out at 26.4 µM.

With `CC12CCC(=O)C(O1)C1C(=O)c3ccc4c(ccc5ccccc54)c3C(=O)C12` (stereo not drawn), the GI50 is 7.11 µM and the TGI worked out at 17.8 µM.

`CC12OC(C(=O)C13CC3)C1C(=O)c3c(O)ccc(O)c3C(=O)C12` (stereo not drawn): the GI50 is 19.3 µM and the TGI amounted to 58.5 µM.

The molecule `O=C1N2CCC[C@H]2CS1(=O)=O` came in with a TGI of 42 µM.

As for `C=CC(C)(C)/C=C/c1ccc(O)cc1`, the TGI is over 100 µM.

Take `COc1cc(F)c(F)cc1C(=O)c1cnc(NC2CCN(S(C)(=O)=O)CC2)nc1N`: the GI50 is 4.52 µM and the TGI was over 22.6 µM.

Consider `O=C1C(N2CCN(CCOCCO)CC2)=C(Cl)C(=O)c2ncccc21`, for which the GI50 is over 100 µM and the TGI is over 100 µM.

`CC(C)=Cc1cc(CCC/C(C)=C/Cc2c(O)cc(C)c(C(=O)O)c2O)co1` displayed a TGI of over 100 µM.

Consider `N#C/C(=C/N1CCN(C(=O)c2ccco2)C1=S)C(=O)Nc1ccc(Cl)cc1`, for which the GI50 was 28.6 µM and the TGI was over 50 µM.

Regarding `CN(C)c1ccc(/C=c2/c3ccccc3n3c2cc(/C=C/c2ccccc2)[n+]3C)cc1`, the TGI turned out to be 1.33 µM.

With `COc1ccc(C2NN=C3c4ccccc4CCC32)cc1` (stereo not drawn), the GI50 was 44.2 µM and the TGI was over 100 µM.

Regarding `COc1cccc2c1OC1c3ccccc3OCC1(O)C2` (stereo not drawn), the TGI was over 100 µM.

`COc1ccc(/C=C2\CCCc3ccccc3C2=O)cc1`: the TGI stood at 22.5 µM.

`COc1ccc(NC(=O)CC(=O)N/N=C(\C)c2cc3ccccc3oc2=O)cc1` registered a TGI of over 100 µM.

`Cc1cc(C)nc(NS(=O)(=O)c2ccc(NNc3c4ccccc4nc4c(C(=O)Nc5ccc(S(=O)(=O)Nc6cc(C)on6)cc5)cccc34)cc2)n1`: the TGI is over 100 µM.

As for `O=C1NC(=O)C(c2cccc(Cl)c2)=C1Nc1ccc(Cl)c(C(=O)O)c1`, the GI50 was over 25 µM and the TGI is over 25 µM.

With `C=C(C(=O)OC)[C@@H]1CC2OC1C(=O)C(C)CCC/C(C)=C/CC[C@@]2(C)O` (stereo partly drawn), the GI50 is over 100 µM and the TGI was over 100 µM.

For the molecule `COc1cccc(C(C#N)NNC(=O)c2c(Cl)c(Cl)c(Cl)c(Cl)c2-c2nc3ccc(C(=O)c4ccccc4)cc3[nH]2)c1O` (stereo not drawn), the TGI is over 100 µM.

Regarding `CN(C)CCN1C(=O)c2cccc3c(/C=C/CN4C(=O)c5cccc6cccc(c56)C4=O)ccc(c23)C1=O`, the GI50 was over 100 µM and the TGI is over 100 µM.

With `Nc1nc(Cl)nc2c1ncn2C1OC(CO)C(O)C1F` (stereo not drawn), the GI50 is 0.434 µM and the TGI is over 92.5 µM.

`CC(=O)OCC1OC(n2c(=O)[nH]c(=O)c3n[nH]nc32)C(OC(C)=O)C(OC(C)=O)C1OC(C)=O` (stereo not drawn) yielded a TGI of over 100 µM.

As for `CC(C)(C)c1ccc(C2CC(=O)C3=C(C2)Nc2ccccc2N(C(=O)c2ccccc2Cl)C3c2ccc(F)cc2)cc1` (stereo not drawn), the GI50 was over 100 µM and the TGI was over 100 µM.

Take `Cc1ccc(S(=O)(=O)OCCC2CN(C(=O)OCc3ccccc3)C(C)(C)O2)cc1` (stereo not drawn): the TGI is over 100 µM.

The molecule `COc1cc2c(cc1OC)C(C(CBr)CBr)N(C1CCCC1)CC2` (stereo not drawn) showed a TGI of over 100 µM.

With `Cc1cc2c(c(C(=O)NCC(=O)O)c1)Oc1c(cc(C)cc1C(=O)NCC(=O)O)S2`, the TGI was over 100 µM.

With `COC(=O)CC1(O)C=CC(=O)C=C1`, the TGI was determined as 30.3 µM.

`CC/C=C/c1cc2c(cc1O)CCC1C2CC[C@@]2(C)C1CC[C@@H]2O` (stereo partly drawn) yielded a TGI of 6.79 µM.

On to `COc1cc(S(=O)(=O)Nc2nc(-c3ccc(N4C(=O)C(C)SC4c4ccccc4O)cc3)cs2)ccc1Cl` (stereo not drawn), for which the GI50 was 73.4 µM and the TGI was over 100 µM.

Consider `CCOC(=O)[C@@]12C(C)=CC(=O)O[C@]1(C)C1C(=O)NC(=O)C12` (stereo partly drawn), for which the TGI was over 100 µM.

With `COC(=O)C1C(=O)CC(C)(O)C(C(=O)OC)C1c1ccc(N(C)C)cc1` (stereo not drawn), the TGI is over 100 µM.

The molecule `O=C1C(Cl)=C(Cl)C(=O)N1c1ccc(Cl)c(Cl)c1Cl` had a TGI of over 100 µM.

Regarding `Cc1cc(=O)[nH]c(N/N=C/c2ccccc2O)n1`, the GI50 is 3.57 µM and the TGI is over 100 µM.

On to `O=c1[nH]nc(-c2ccccc2)c2[nH]c3c(c12)Cc1ccccc1-3`, for which the TGI was over 100 µM.

On to `COc1cc(S(=O)(=O)Nc2ccc(-c3csc(N4C(=O)C(Cl)C4c4ccccc4O)n3)cc2)ccc1Cl` (stereo not drawn), for which the TGI was over 100 µM.

Molecule `C=CCC12CC(=O)CCC1c1ccc(OC)cc1C2=O` (stereo not drawn) registered a TGI of over 100 µM.

For `CN1CCN(CCCOc2ccc3nc(Nc4ccc(F)c(F)c4)ccc3c2)CC1`, the GI50 was 2.35 µM and the TGI was determined as 7.05 µM.

Take `O=C1C=CC2(O[C@H](C3CCCCC3)[C@@H](C3CCCCC3)O2)C(SC(=O)c2ccccc2)C1` (stereo partly drawn): the TGI was found to be 16.9 µM.

Consider `CCCC1=C(OC)C(=O)c2c(C)cc(Cl)nc2C1=O`, for which the TGI was 28.4 µM.

Turning to `O=c1cc(-c2ccccc2)[nH]c2c1CCCC2`, the GI50 is 3.97 µM and the TGI is over 100 µM.

`COc1ccc(OC)c2c(C)ccnc12` showed a TGI of over 100 µM.

On to `CCc1ccc2oc(=O)ccc2c1`, for which the TGI is over 100 µM.

For the molecule `COc1cc2c3c(n(C)c(=O)c2cc1OC)-c1cc2c(cc1/C3=C\CCCCCBr)OCO2`, the TGI is 82.2 µM.

In turn, `CC1=NN(c2ccccc2)C(=O)C12[C@H](c1ccccc1)C2(C#N)C#N` (stereo partly drawn) displayed a TGI of 29.4 µM.

Molecule `O=C1C=CC(=O)c2c(O)c(N3CCOCC3)c(Cl)c(O)c21` displayed a TGI of 3.14 µM.

Molecule `CCCC(O)c1cn(-c2cccc(S(=O)(=O)O)c2)nn1` (stereo not drawn) had a TGI of over 100 µM.

For the molecule `C/C(=N\Nc1nc2ccccc2[nH]1)c1ncccn1`, the TGI was over 100 µM.

For `COc1ccc(Nc2ncnc3ccc(-c4cncc(NS(C)(=O)=O)c4)cc23)cc1Cl`, the GI50 was 3.17 µM and the TGI came out at 15.6 µM.

`COc1ccc(N2C(=O)[C@@H](N=[N+]=[N-])[C@@H]2[C@H]2COC(C)(C)O2)cc1` returned a TGI of over 100 µM.

For `N#CC1=C(N)NC(N2CCOCC2)=NC12Nc1ccccc1O2` (stereo not drawn), the GI50 was over 100 µM and the TGI is over 100 µM.

In turn, `O=c1cc(-c2ccccc2)oc2c1ccc1[nH]c3ccccc3c(=O)c12` came in with a TGI of over 100 µM.

`COc1cc(Cl)c(CC(=O)c2c[nH]c3ccccc23)cc1OC` yielded a TGI of over 100 µM.

As for `COC(=O)c1onc(C2OC(C)(C)OC2C(O)COC(c2ccccc2)(c2ccccc2)c2ccccc2)c1C(=O)OC` (stereo not drawn), the TGI was over 100 µM.

Molecule `O=[N+]([O-])c1cc(/C=N\NS(=O)(=O)c2ccc(Cl)cc2)c(O)c([N+](=O)[O-])c1` returned a TGI of over 100 µM.

Regarding `CC(C)[C@H](C)/C=C/[C@@H](C)C1CC[C@H]2[C@@]34C=C[C@]5(C[C@@H](O)CC[C@]5(C)[C@H]3CC[C@]12C)OO4` (stereo partly drawn), the TGI was over 100 µM.

On to `CC(C)=Cc1cc(C)c2ccc(C)c3c2c1C(C)=C(O)C3=O`, for which the GI50 is 25.5 µM and the TGI is 98.7 µM.

Consider `Clc1ccc(-c2nn3c(COc4cccc(OCc5nnc6sc(-c7ccc(Cl)cc7)nn56)c4)nnc3s2)cc1`, for which the TGI was over 100 µM.

In turn, `O=C1C=C(N2CCN(c3ncccn3)CC2)C(=O)c2c(O)ccc(O)c21` returned a TGI of over 100 µM.

Molecule `CC(OP(=O)(O)O)C(N)C(=O)O` (stereo not drawn) returned a TGI of over 100 µM.

On to `COc1cc(OC)c2c(=O)cc(-c3ccccc3OCc3ccccc3)oc2c1OC`, for which the GI50 was 16.2 µM and the TGI amounted to 60.4 µM.

The molecule `O=C1CC(C2(O)C(=O)Nc3ccc([N+](=O)[O-])cc32)c2ccccc21` (stereo not drawn) yielded a TGI of over 100 µM.

On to `CC(C)(C)OC(=O)C(C#N)C(=O)c1ccc(C(=O)O)[nH]1` (stereo not drawn), for which the TGI was over 100 µM.

For the molecule `Cc1c(OCc2cccc3ccccc23)ccc2c(=O)cc(SCCN3CCOCC3)oc12`, the TGI was over 100 µM.

`CC(=O)OCC1OC(SC2=NC(=O)CS2)C(OC(C)=O)C(OC(C)=O)C1OC(C)=O` (stereo not drawn) returned a TGI of over 100 µM.

With `CCCCCCCCCCCNC=O`, the TGI was over 100 µM.

Turning to `CCOC(=O)CCc1cn2cc(Br)nc(OC)c2n1`, the TGI was over 100 µM.

`c1ccc2c(Nc3ncco3)cccc2c1` showed a TGI of over 10 µM.

In turn, `S=C1C(=Nc2ccccc2)N(c2ccccc2)/C(=N\c2cccc[n+]2Cc2ccccc2)N1c1ccccc1` gave a TGI of 55.8 µM.
